Laboratory results published in article PMC4686657.
Results are given in words; binding and its absence hold for the method and conditions named. In cells and extracts the contact can be indirect. Some entries that bind do so weakly or less than the wild type.

The chains behind the UniProt entries cited, without tags or fusion partners.
UniProt Q9WTM5: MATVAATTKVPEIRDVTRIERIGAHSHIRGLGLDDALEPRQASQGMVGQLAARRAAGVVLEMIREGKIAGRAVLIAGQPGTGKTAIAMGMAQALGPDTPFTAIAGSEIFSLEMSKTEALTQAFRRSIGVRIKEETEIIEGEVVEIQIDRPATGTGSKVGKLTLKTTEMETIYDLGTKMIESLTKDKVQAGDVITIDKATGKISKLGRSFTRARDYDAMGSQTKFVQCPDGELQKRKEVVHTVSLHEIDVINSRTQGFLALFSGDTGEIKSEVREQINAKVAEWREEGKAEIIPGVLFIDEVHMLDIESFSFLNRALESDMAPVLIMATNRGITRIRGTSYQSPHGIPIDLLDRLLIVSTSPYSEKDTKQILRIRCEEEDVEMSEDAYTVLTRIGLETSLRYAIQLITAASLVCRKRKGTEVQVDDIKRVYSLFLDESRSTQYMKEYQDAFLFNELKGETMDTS
UniProt P60122: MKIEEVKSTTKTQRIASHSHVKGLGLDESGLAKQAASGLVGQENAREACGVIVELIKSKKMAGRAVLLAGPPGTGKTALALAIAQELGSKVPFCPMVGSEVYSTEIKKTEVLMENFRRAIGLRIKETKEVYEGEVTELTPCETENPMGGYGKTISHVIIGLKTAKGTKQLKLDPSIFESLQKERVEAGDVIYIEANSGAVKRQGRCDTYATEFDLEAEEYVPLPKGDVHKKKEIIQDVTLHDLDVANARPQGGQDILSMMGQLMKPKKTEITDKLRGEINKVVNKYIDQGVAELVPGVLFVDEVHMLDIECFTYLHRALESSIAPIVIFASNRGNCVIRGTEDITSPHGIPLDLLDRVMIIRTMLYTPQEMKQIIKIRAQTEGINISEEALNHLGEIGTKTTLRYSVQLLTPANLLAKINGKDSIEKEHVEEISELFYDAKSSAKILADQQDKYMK
UniProt Q01094: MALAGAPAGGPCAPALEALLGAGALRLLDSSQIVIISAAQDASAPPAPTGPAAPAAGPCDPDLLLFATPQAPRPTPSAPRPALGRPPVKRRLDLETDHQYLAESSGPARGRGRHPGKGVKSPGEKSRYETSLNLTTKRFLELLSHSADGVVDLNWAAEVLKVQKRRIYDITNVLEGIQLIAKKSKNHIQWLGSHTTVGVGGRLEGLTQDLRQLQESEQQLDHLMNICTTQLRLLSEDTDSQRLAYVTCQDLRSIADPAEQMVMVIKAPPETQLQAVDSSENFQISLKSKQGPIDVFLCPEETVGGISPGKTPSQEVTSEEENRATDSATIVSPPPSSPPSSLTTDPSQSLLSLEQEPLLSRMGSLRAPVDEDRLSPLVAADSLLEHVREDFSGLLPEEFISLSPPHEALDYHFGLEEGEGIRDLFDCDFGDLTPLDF
UniProt Q61501: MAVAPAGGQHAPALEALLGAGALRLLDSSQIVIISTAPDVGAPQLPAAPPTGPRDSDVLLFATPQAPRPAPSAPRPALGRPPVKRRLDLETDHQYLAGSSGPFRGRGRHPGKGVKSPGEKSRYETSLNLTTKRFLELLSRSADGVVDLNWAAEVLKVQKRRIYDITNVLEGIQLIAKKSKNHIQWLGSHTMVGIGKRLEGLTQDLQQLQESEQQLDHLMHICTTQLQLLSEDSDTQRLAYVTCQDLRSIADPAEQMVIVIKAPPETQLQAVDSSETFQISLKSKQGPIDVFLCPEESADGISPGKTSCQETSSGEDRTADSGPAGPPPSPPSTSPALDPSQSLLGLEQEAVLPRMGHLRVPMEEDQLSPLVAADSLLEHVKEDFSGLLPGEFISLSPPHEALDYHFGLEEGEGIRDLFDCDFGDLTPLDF
UniProt O35261: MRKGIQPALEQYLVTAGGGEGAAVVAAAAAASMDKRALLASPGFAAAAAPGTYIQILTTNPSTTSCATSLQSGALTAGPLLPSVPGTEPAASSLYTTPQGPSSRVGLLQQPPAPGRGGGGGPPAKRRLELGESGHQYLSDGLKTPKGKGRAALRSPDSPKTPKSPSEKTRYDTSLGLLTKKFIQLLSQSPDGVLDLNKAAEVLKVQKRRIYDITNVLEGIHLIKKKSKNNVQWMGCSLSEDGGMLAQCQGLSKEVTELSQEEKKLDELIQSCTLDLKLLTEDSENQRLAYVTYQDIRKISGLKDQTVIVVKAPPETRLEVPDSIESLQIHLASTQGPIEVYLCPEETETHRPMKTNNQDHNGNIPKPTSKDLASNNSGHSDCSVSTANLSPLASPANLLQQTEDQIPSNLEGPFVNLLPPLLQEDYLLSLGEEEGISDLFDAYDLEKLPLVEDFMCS
UniProt P56931: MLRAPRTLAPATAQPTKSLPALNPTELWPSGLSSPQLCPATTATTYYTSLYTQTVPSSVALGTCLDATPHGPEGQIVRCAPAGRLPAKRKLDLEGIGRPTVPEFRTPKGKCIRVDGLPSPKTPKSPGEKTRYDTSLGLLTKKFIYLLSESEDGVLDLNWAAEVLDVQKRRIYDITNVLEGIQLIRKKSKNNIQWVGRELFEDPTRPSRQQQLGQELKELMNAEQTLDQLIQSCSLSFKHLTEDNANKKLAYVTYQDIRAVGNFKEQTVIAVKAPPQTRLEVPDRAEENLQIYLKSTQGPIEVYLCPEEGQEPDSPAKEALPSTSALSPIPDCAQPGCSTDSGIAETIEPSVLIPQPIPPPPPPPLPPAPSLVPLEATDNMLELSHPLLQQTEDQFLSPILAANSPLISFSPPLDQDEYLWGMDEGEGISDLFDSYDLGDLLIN
UniProt P0C0S6: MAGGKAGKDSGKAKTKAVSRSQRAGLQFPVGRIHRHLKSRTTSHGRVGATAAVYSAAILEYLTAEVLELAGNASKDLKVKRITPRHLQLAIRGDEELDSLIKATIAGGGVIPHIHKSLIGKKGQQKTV

What was measured:
[1] = molecular target: Reptin (mouse (endogenous in TKO HCC cells)) (UniProt Q9WTM5); assay: co-IP; IP and reverse-IP of endogenous proteins (E2f1, E2f3, Reptin, Pontin; IgG or HA as control) from TKO HCC cell lysates, immunoblotting
[2] = molecular target: Pontin (mouse (endogenous in TKO HCC cells)) (UniProt P60122); assay: as above
GST-E2f1 = GST-E2f1 (UniProt Q01094); assay: pull-down; GST-E2f1 fusion proteins bound to GST-sepharose beads incubated with 1 ml TKO cell lysate in TWB buffer for 1 h; washed five times with NENTM buffer; immunoblotting of endogenous protein; only the target purified
[3] = molecular target: E2f1 (mouse (endogenous in TKO HCC cells)) (UniProt Q61501); assay: condition: only liver 4 days after Tamoxifen treatment (acute Rb family inactivation); co-IP; IP for HA, E2f1 and E2f3 in primary liver extracts of Rosa26-CreER^T2 TKO mice 4 days after Tamoxifen treatment (acute Rb family loss); Reptin and Pontin detected by immunoblotting
[4] = molecular target: E2f3 (mouse (endogenous in TKO HCC cells)) (UniProt O35261); assay: co-IP; IP and reverse-IP of endogenous proteins (E2f1, E2f3, Reptin, Pontin; IgG or HA as control) from TKO HCC cell lysates, immunoblotting
[5] = molecular target: E2f1 (mouse (endogenous in TKO HCC cells)) (UniProt Q61501); assay: as above
[6] = molecular target: E2f1 (mouse (endogenous in TKO HCC cells)) (UniProt Q61501); assay: co-IP; IP for HA, E2f1 and E2f3 in primary TKO HCC liver extracts; Reptin and Pontin detected by immunoblotting
[7] = molecular target: Reptin (mouse (endogenous in TKO HCC cells)) (UniProt Q9WTM5); assay: co-sedimentation; 100 μg nuclear extract of TKO HCC cells on a 20% Nycodenz gradient, ultracentrifugation, twenty fractions of 250 μl, immunoblotting
[8] = molecular target: E2f1 (mouse (endogenous in TKO HCC cells)) (UniProt Q61501); assay: co-IP; endogenous E2f1 IP (antibody C-20) from TKO HCC cells, the pair challenged with increasing amounts of GST-E2f1-1-121; Reptin detected by immunoblotting

| binding [1] | binding [2] | binding (GST-E2f1) | binding [3] | binding [4] | binding [5] | binding [6] | binding [7] | binding [8] | Substance |
| --- | --- | --- | --- | --- | --- | --- | --- | --- | --- |
| no binding | no binding |  |  |  |  |  |  |  | E2f2 (from UniProt P56931 1-443) |
| binds |  | no binding | no binding | no binding | binds | binds | binds |  | Pontin (from UniProt P60122 1-456) |
| binds |  |  |  |  |  |  |  |  | H2a.z (from UniProt P0C0S6 1-128) |
|  |  | binds | no binding | no binding | binds | binds |  | binds | Reptin (from UniProt Q9WTM5 1-463) |
